Assays:
[1] = tested on: 5′UTR sequence of the C9orf72 locus present in the GFP-TK reporter; test: Ganciclovir survival of GFP-TK-c10 K562 reporter cells, arrayed lentiviral transduction (Example 3); conditions: dXR with ZNF10-KRAB and guide 174, 5 μg/mL ganciclovir for 5 days
Excerpt: (§1) Specifically, TK metabolizes the typically inert pro-drug ganciclovir into a toxic thymidine analog that leads to cell death. The nucleofected cells were selected in hygromycin for 1 month, sorted to single cells and characterized for ganciclovir sensitivity.
GFP-TK-c10 cells were transduced (250,000 cells: 6-well format) with lentiviruses encoding dXR molecule containing the ZNF10-KRAB domain and gRNA with scaffold 174 (SEQ ID NO: 2238) and spacers targeting the 5′UTR sequence of the C9orf72 locus present in the GFP-TK reporter (Table 16). Transductions were carried out in an arrayed fashion in which one lentivirus was applied to one well of cells. 48 hours after transduction, cells were treated with 5 μg/mL ganciclovir for 5 days and then stained with trypan blue and counted on an automated cell counter.

[2] = tested on: 5′UTR sequence of the C9orf72 locus present in the GFP-TK reporter; test: Lentivirus competition experiments, spacer fitness by NGS before and after ganciclovir (Example 3, Table 18); conditions: GFP-TK-c10 cells, mixed lentiviruses at equal ratio, 5 days 5 μg/mL ganciclovir
Experimental: as §1
Separately, cells were transduced (250,000 cells; 6-well format) with multiple virus combinations at defined ratios (Table 17). 48 hours post-transduction, half of the cells in each well were harvested and frozen as cell pellets, and the other half were selected in the same manner (5 days; 5 μg/mL ganciclovir). After ganciclovir selection the remaining cells were harvested and gDNA was extracted from both pre- and post-ganciclovir treatment samples. Primers flanking the region containing the spacer sequence in the lentivirus constructs were used to generate amplicons for next generation sequencing analysis in which the ratios of the spacers in each well were compared pre- and post-selection. These ratios were used to calculate spacer fitness scores for each competition by taking the log 2 of the fold change in the spacer frequency from pre-selection to post-selection. Fitness was determined by the following equation: […]

| Substance | cell survival after ganciclovir treatment [1] | spacer fitness in competitions (in words) [2] |
| --- | --- | --- |
| Spacer 1: gRNA spacer targeting the C9orf72 5′UTR, used with dXR (ZNF10-KRAB) and guide 174 (guide CGTAACCTACGGTGTCCCGC; chemistry not fully specified) | permitted cell survival | – |
| Spacer 2: gRNA spacer targeting the C9orf72 5′UTR, used with dXR (ZNF10-KRAB) and guide 174 (guide TAGCGGGACACCGTAGGTTA; chemistry not fully specified) | permitted cell survival | measurably more potent than Spacer 1 in all competitions |
| Spacer 3: gRNA spacer targeting the C9orf72 5′UTR, used with dXR (ZNF10-KRAB) and guide 174 (guide CUUUUGGGGGCGGGGUCUAG; listed as RNA, chemistry not fully specified) | resulted in cell death | ineffective in almost all competitions |

From patent US20240392271A1, “ENGINEERED CASX REPRESSOR SYSTEMS” (Scribe Therapeutics Inc., priority 2021, published 2024)
